Reference: the supplement of paper PMC3334620
In all, about 33,000 sequences were measured (“E-score (-0.5 to 0.5)”: median about -0.041, highest 2% from about 0.37 on). Some of the results follow.

These sequences were tested against T1, Ecm22 (UniProt Q05958) (assay: PBM E-score (8-mer binding enrichment) (E-score (-0.5 to 0.5)); higher = stronger / more preferred TF binding; most listed sequences are background and not binding sites). Conditions: protein concentration: 200 nM; construct: GST-full length.
T1 sequence: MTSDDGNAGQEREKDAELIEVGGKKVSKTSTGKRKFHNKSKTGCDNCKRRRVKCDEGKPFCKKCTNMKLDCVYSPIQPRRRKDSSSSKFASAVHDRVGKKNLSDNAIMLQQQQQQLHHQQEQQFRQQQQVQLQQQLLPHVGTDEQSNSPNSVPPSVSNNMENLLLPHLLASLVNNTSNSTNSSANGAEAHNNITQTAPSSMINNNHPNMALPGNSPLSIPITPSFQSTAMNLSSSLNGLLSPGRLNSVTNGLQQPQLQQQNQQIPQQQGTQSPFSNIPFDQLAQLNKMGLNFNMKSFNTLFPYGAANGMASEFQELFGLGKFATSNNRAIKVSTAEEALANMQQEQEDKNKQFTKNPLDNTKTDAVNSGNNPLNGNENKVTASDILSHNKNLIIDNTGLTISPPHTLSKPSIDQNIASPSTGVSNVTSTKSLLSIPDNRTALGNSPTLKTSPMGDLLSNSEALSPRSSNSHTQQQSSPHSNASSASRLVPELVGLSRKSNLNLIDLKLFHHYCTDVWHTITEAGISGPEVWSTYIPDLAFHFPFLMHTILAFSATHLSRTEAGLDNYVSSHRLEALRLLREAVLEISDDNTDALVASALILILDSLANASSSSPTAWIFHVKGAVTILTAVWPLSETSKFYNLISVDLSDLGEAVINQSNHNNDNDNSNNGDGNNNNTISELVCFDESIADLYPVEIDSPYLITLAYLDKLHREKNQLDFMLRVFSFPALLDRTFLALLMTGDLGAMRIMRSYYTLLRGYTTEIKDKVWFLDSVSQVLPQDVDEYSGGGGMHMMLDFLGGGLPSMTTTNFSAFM
Experimental: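 Universal 'all 10-mer' protein binding microarrays (Agilent AMADID 015681) probed with GST-tagged S. cerevisiae TFs (full-length or DBD) made by in vitro transcription/translation (PURExpress), about 100-200 nM. Bound TF was detected with fluorescent anti-GST. Each ungapped 8-mer (which stands for itself and its reverse complement) is scored by the PBM enrichment score (E-score), a modified Wilcoxon-Mann-Whitney statistic from -0.5 to +0.5, computed with the Universal PBM Analysis Suite. Scale: above 0.35 generally sequence-specific binding.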

Sequence | PBM E-score
AAGGCATC | -0.0118
CTAAAGCA | -0.0375
ATCAGGTG | -0.178
ATGTATCG | 0.254
GTGTAAAC | 0.111
AAGCCCAG | -0.109
ATAGCCTG | -0.281
AAGGCAAT | -0.0603
GGTGTTGA | -0.168
CGCCCCGC | -0.0353
GACTGCAA | -0.268
ACACATCC | -0.0188
ACATAGAC | -0.117
TCCAATAA | -0.0272
AACGTACT | 0.206
AAAGTGCT | -0.284
AAAAGGCA | -0.201
ATACTGGA | 0.00166
AGCACCGA | 0.11
AAAGGATT | -0.164
CAACCACA | -0.0795
CTGACAAA | 0.0148
ATTAAGAC | -0.0694
CCTGATTC | -0.132
CGCATAAA | 0.164

Sequence | PBM E-score
ATATCACG | 0.0459
GCACTCAA | -0.15
ACCCCGGA | -0.136
TGTACACA | 0.0209
GCACGTGA | -0.0463
AACTTAAC | 0.109
ACTACTTG | -0.187
ATTTCTAC | 0.139
ATACCGTG | -0.00541
CAATCCCG | -0.012
GAAGCACA | -0.0546
CCCCGGGG | 0.129
GGTTGAAC | 0.0859
ACCTGGGC | -0.195
AAGAATCA | -0.299
CATTAACG | 0.182
ACACATGT | 0.00831
GCGTGTCC | 0.104
ATCCGCTA | 0.0928
CATTCAGA | -0.297
ACGGAGCG | 0.308
AACAGAAT | -0.181
GTATTCAA | 0.0186
GAAAGAGA | -0.0205
CTTCTAGA | -0.161

Sequence | PBM E-score
ACCGTCCC | -0.258
ATCCGCTG | 0.0117
AACTTCCG | 0.133
ACTTTAAT | -0.144
ATGCAGTA | 0.0758
ACTCGTGA | 0.135
AACGTTCG | 0.217
CGTCCCGC | -0.104
AAGATAGC | -0.149
AAGCTTTG | -0.0752
TCAGGTCA | -0.287
ATGTGAGC | -0.111
CTCGGCAG | -0.043
AAGTGCGT | -0.0022
CCGGGTGA | -0.235
AAGCACCT | -0.264
GCATAAAA | 0.0649
CACCTGCG | -0.22
ATATTGGC | -0.123
TACATGAA | 0.0426
CACCTCGG | 0.113
ACTGGACT | -0.271
GGAACTCC | -0.0353
AGGACATA | -0.124
GTATCCTA | -0.0543

Sequence | PBM E-score
GACATAAA | 0.0336
GTCCTGTA | -0.0746
CACAGACG | -0.0539
GTAAATAA | 0.127
TAGTTTCA | -0.0809
GACAGTCA | -0.0371
AGTAGCTC | -0.0697
ATATGCCG | 0.181
GAGAAGAA | 0.0852
TGCCAGAA | -0.123
AGCGATTG | 0.0712
ACTGAGAG | -0.08
GCCCGTCC | -0.279
ACTTCTAA | -0.139
ACGGTACG | 0.436
TACTTGCA | -0.00207
AGGTTCTG | -0.121
AGTCGAAA | 0.066
CCTACATA | -0.178
GGGTCTGA | -0.385
GTGGCATA | -0.0686
GATACACA | -0.0375
CATTTTGG | -0.169
AGAAATAG | -0.0748
CTAAATCA | -0.0135

Sequence | PBM E-score
GTACCCGA | 0.225
ACACTGCT | -0.186
CTCTCCGA | -0.0719
TTCTCAAA | 0.0548
CCAGTTTC | -0.098
CACCCAGG | -0.0172
AAGCTAAG | -0.223
CCACGGAG | -0.163
TCCAAGAA | -0.14
ATTTTGGG | -0.125
CAAACTTA | -0.0805
CACATACA | -0.075
GGTCGTCA | 0.0226
AACTACCA | -0.0898
AAGCTTAA | 0.014
GCTCTGCA | -0.142
CACCACGG | -0.358
CTAAACCC | -0.107
ATTATTAG | 0.234
GGTCTCAA | -0.239
CGACACAG | 0.17
AGCATGCT | -0.118
CCCAACAA | -0.0191
CTAGATCC | 0.0224
CCTAAACC | -0.00691

Sequence | PBM E-score
GCCTGTGA | -0.362
ACGGTGAA | 0.237
GTCGTCAC | 0.084
AGCACTTA | 0.0258
ATTAGGTC | 0.125
ACCGCCGG | -0.155
GAATTAAA | -0.0485
GTTGTTCA | 0.168
TAGTACTA | 0.0335
CTACGTTA | 0.0833
GACCCTTA | -0.121
AAGATTAA | -0.0609
GAAACCTA | -0.25
CATTCCTC | 0.0616
AAGCTACA | -0.1
CATCACGC | 0.0605
ATGCTTAA | -0.0486
GCGTTCAC | 0.0595
ATGTTGCC | -0.0387
CAAGCCTG | -0.201
ACTACAGT | -0.0516
AGCGGCCC | -0.183
AAATGCGT | 0.104
TCATGTAA | -0.00199
GAGTCTGA | -0.0236

Sequence | PBM E-score
ATTTGTAC | 0.0801
CATAGACA | 0.0648
AATGCAAG | -0.181
CGTCTCAC | 0.0419
CGAGAGAC | 0.0669
CAATCCGC | -0.0795
ACTAAGAT | 0.0907
TGGTAAAA | -0.0114
AACATCAA | 0.0313
GCGAGTGA | 0.275
CGTAGGTC | -0.00765
ATAGAGGG | -0.00139
ACTTCTCC | -0.131
ATACCTAT | -0.00027
TATTGCGA | 0.12
CTGGTATA | -0.0939
GGCTTATA | -0.0276
TCCCGCCA | -0.229
ACCGAGTA | 0.286
AATCACGC | -0.0404
ATTGGGCG | -0.0468
CTATTTAC | 0.0921
